# Experimental data taken from the supplement of paper PMC8728848.
# The list shows a part of the results.
# B1: Epa1-NP-mutant-Y228A (Candida glabrata), Q6VBJ0 (protein)
# chain: MILNPALFLNKCVCIYTTLILLLLTNGGYATSSNDISLASKDPTTFPLGCSPDITTPKKGLSMELYSYDFRKKGSYPCWDAAYLDPNYPRTGYKSHRLLAKVDGVTGNINFYYHATKGCTPQLGHLPASYNYPKPLTMTNFTMLLYGYFRPKVTGFHTFTISADDLLFVNFGAGNAFDCCRRDSSADHFGNYQAYAIWGSKTAKDELTVHLDAGVYYPIRLFYNNREADGALSFTFKTESNENTVSDFSEYFFSLDDTEEGCPGLISYDSSCASVKTSKIIGIDYHTETPNENLVPITKTIYHLGIPCTGTTTTPLCGSGFYDPLANKCVTINTSSTSSVTKTTSHTTSKEVSFHSSISSQKTLIPKSIPSPYGPIKSQSIPTEMETSSEISSSEYAFSDVISTPSHSPYTKKHSSLNSSSYTSTVIHSLTSYSISQGIFSTSLSEQNITSKSSTDKFSTATSMSNNITQSSIIISQFSTNNENYTTTSMHTSSDKISTETLNNSISTTTSILFSNSSTILKNNTTIISSDKDTHYHPVNPTIVCSTNKTEIICASITQPSISNSNNHWSSSVLKFNSTTVRSTLPSSAGSNETSINVPFSSSTESNTSTSSTSTSNSKMVRSTLPSSAGSNETSISVPFSSSTESNTSTSSTSTSNSKMVRSTLPSSAGSNETSINVPFSSSTESNTSTSSTSTSNSKTVRSTPFSSAGIIMTSLSQRNNKSASSYASSNSKCYNTADSCRKVHSTPSYLLTSSYTSEGVDYDCSLVSTKLKINDTNCVNNKHTTKSCLKTSVTTTIPTLEIKTARKSSSNTIGLHSYPTSSPNKSISSAPIIGYISSFKTIKTASPSYQTSDLTTITTITSLNNPGSTAVENTHESNDKSRKTSSNDISSKHSVIKETKDAVESSNKSHQTNTLKCSSIIIASSSHNSYESLGGTTLTLTLSKVYSPQNNDTLPFLEISEVNPSRTVLPESSKMMQYLTSTEERNKTARNTIATNIVSISTFHFEGEGNAIRMGYTQLLLMLIGIIVMNIGT
# Tests used:
# Test in all cases: glycan array binding signal (z-score within array); higher = stronger binding
# Conditions in all cases: glycan notation: IUPAC condensed, linker removed; mutation: Y228A
# [1] = target: GlcNAc(a1-6)Gal(b1-4)GlcNAc
# Summary of the method: (§1)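 Glycan array data came from 3228 arrays in the Consortium for Functional Glycomics database, and only arrays with an available protein sequence were kept. Glycan names were put into IUPAC-condensed notation, and columns mapping to the same glycan were averaged. The binding signal is a within-array Z-score, averaged across arrays of one protein sequence run at different concentrations or buffers and across linkers. A negative Z-score can be read as non-binding.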
# [2] = target: GlcNAc(b1-2)Gal(b1-3)GalNAc
# Summary of the method: as §1
# [3] = target: GlcNAc(b1-2)Man(a1-3)[GlcNAc(b1-2)Man(a1-6)]Man(b1-4)GlcNAc(b1-4)GlcNAc
# Summary of the method: as §1
# [4] = target: GlcNAc(b1-2)Man(a1-3)[GlcNAc(b1-2)Man(a1-6)]Man(b1-4)GlcNAc(b1-4)[Fuc(a1-6)]GlcNAc
# Summary of the method: as §1
# [5] = target: GlcNAc(b1-2)Man(a1-3)[GlcNAc(b1-4)][GlcNAc(b1-2)Man(a1-6)]Man(b1-4)GlcNAc(b1-4)GlcNAc
# Summary of the method: as §1
# [6] = target: GlcNAc(b1-2)Man(a1-3)[GlcNAc(b1-4)][GlcNAc(b1-2)Man(a1-6)]Man(b1-4)GlcNAc(b1-4)[Fuc(a1-6)]GlcNAc
# Summary of the method: as §1
# [7] = target: GlcNAc(b1-2)[GlcNAc(b1-4)]Man(a1-3)[GlcNAc(b1-2)Man(a1-6)]Man(b1-4)GlcNAc(b1-4)GlcNAc
# Summary of the method: as §1
# [8] = target: GlcNAc(b1-2)[GlcNAc(b1-4)]Man(a1-3)[GlcNAc(b1-4)][GlcNAc(b1-2)Man(a1-6)]Man(b1-4)GlcNAc(b1-4)GlcNAc
# Summary of the method: as §1
# [9] = target: GlcNAc(b1-2)[GlcNAc(b1-4)]Man(a1-3)[GlcNAc(b1-4)][GlcNAc(b1-2)[GlcNAc(b1-6)]Man(a1-6)]Man(b1-4)GlcNAc(b1-4)GlcNAc
# Summary of the method: as §1
# [10] = target: GlcNAc(b1-2)[GlcNAc(b1-4)]Man(a1-3)[GlcNAc(b1-4)][GlcNAc(b1-2)[GlcNAc(b1-6)]Man(a1-6)]Man(b1-4)GlcNAc(b1-4)[Fuc(a1-6)]GlcNAc
# Summary of the method: as §1
# [11] = target: GlcNAc(b1-2)[GlcNAc(b1-6)]Man(a1-6)[GlcNAc(b1-2)Man(a1-3)]Man(b1-4)GlcNAc(b1-4)GlcNAc
# Summary of the method: as §1
# [12] = target: GlcNAc(b1-2)[GlcNAc(b1-6)]Man(a1-6)[GlcNAc(b1-2)Man(a1-3)]Man(b1-4)GlcNAc(b1-4)[Fuc(a1-6)]GlcNAc
# Summary of the method: as §1
# [13] = target: GlcNAc(b1-2)[GlcNAc(b1-6)]Man(a1-6)[GlcNAc(b1-4)][GlcNAc(b1-2)Man(a1-3)]Man(b1-4)GlcNAc(b1-4)GlcNAc
# Summary of the method: as §1
# GlcNAc(b1-3)Fuc = target: GlcNAc(b1-3)Fuc
# Summary of the method: as §1
# GlcNAc(b1-3)Gal = target: GlcNAc(b1-3)Gal
# Summary of the method: as §1
# [14] = target: GlcNAc(b1-3)Gal(b1-3)GalNAc
# Summary of the method: as §1
# GlcNAc(b1-3)Gal(b1-4)Glc = target: GlcNAc(b1-3)Gal(b1-4)Glc
# Summary of the method: as §1
# [15] = target: GlcNAc(b1-3)Gal(b1-4)GlcNAc
# Summary of the method: as §1
# [16] = target: GlcNAc(b1-3)Gal(b1-4)GlcNAc(b1-2)Man(a1-3)[GlcNAc(b1-3)Gal(b1-4)GlcNAc(b1-2)Man(a1-6)]Man(b1-4)GlcNAc(b1-4)GlcNAc
# Summary of the method: as §1
# [17] = target: GlcNAc(b1-3)Gal(b1-4)GlcNAc(b1-2)Man(a1-3)[GlcNAc(b1-3)Gal(b1-4)GlcNAc(b1-2)Man(a1-6)]Man(b1-4)GlcNAc(b1-4)[Fuc(a1-6)]GlcNAc
# Summary of the method: as §1
# [18] = target: GlcNAc(b1-3)Gal(b1-4)GlcNAc(b1-2)[GlcNAc(b1-3)Gal(b1-4)GlcNAc(b1-6)]Man(a1-6)[GlcNAc(b1-3)Gal(b1-4)GlcNAc(b1-2)Man(a1-3)]Man(b1-4)GlcNAc(b1-4)GlcNAc
# Summary of the method: as §1
# [19] = target: GlcNAc(b1-3)Gal(b1-4)GlcNAc(b1-3)Gal(b1-4)GlcNAc
# Summary of the method: as §1
# [20] = target: GlcNAc(b1-3)Gal(b1-4)GlcNAc(b1-3)Gal(b1-4)GlcNAc(b1-2)Man(a1-3)[GlcNAc(b1-3)Gal(b1-4)GlcNAc(b1-3)Gal(b1-4)GlcNAc(b1-2)Man(a1-6)]Man(b1-4)GlcNAc(b1-4)GlcNAc
# Summary of the method: as §1
# [21] = target: GlcNAc(b1-3)Gal(b1-4)GlcNAc(b1-3)Gal(b1-4)GlcNAc(b1-2)Man(a1-3)[GlcNAc(b1-3)Gal(b1-4)GlcNAc(b1-3)Gal(b1-4)GlcNAc(b1-2)Man(a1-6)]Man(b1-4)GlcNAc(b1-4)[Fuc(a1-6)]GlcNAc
# Summary of the method: as §1
# [22] = target: GlcNAc(b1-3)Gal(b1-4)GlcNAc(b1-3)Gal(b1-4)GlcNAc(b1-2)[GlcNAc(b1-3)Gal(b1-4)GlcNAc(b1-3)Gal(b1-4)GlcNAc(b1-6)]Man(a1-6)[GlcNAc(b1-3)Gal(b1-4)GlcNAc(b1-3)Gal(b1-4)GlcNAc(b1-2)Man(a1-3)]Man(b1-4)GlcNAc(b1-4)[Fuc(a1-6)]GlcNAc
# Summary of the method: as §1
# [23] = target: GlcNAc(b1-3)Gal(b1-4)GlcNAc(b1-3)Gal(b1-4)GlcNAc(b1-3)Gal(b1-4)GlcNAc(b1-2)Man(a1-3)[GlcNAc(b1-3)Gal(b1-4)GlcNAc(b1-3)Gal(b1-4)GlcNAc(b1-3)Gal(b1-4)GlcNAc(b1-2)Man(a1-6)]Man(b1-4)GlcNAc(b1-4)GlcNAc
# Summary of the method: as §1
# [24] = target: GlcNAc(b1-3)Gal(b1-4)GlcNAc(b1-3)Gal(b1-4)GlcNAc(b1-3)Gal(b1-4)GlcNAc(b1-2)Man(a1-3)[GlcNAc(b1-3)Gal(b1-4)GlcNAc(b1-3)Gal(b1-4)GlcNAc(b1-3)Gal(b1-4)GlcNAc(b1-2)Man(a1-6)]Man(b1-4)GlcNAc(b1-4)[Fuc(a1-6)]GlcNAc
# Summary of the method: as §1
# [25] = target: GlcNAc(b1-3)Gal(b1-4)GlcNAc(b1-3)Gal(b1-4)GlcNAc(b1-3)Gal(b1-4)GlcNAc(b1-2)[GlcNAc(b1-3)Gal(b1-4)GlcNAc(b1-3)Gal(b1-4)GlcNAc(b1-3)Gal(b1-4)GlcNAc(b1-6)]Man(a1-6)[GlcNAc(b1-3)Gal(b1-4)GlcNAc(b1-3)Gal(b1-4)GlcNAc(b1-3)Gal(b1-4)GlcNAc(b1-2)Man(a1-3)]Man(b1-4)GlcNAc(b1-4)[Fuc(a1-6)]GlcNAc
# Summary of the method: as §1
# [26] = target: GlcNAc(b1-3)Gal(b1-4)GlcNAc(b1-3)Gal(b1-4)GlcNAc(b1-3)Gal(b1-4)GlcNAc(b1-3)Gal(b1-4)GlcNAc(b1-2)Man(a1-3)[GlcNAc(b1-3)Gal(b1-4)GlcNAc(b1-3)Gal(b1-4)GlcNAc(b1-3)Gal(b1-4)GlcNAc(b1-3)Gal(b1-4)GlcNAc(b1-2)Man(a1-6)]Man(b1-4)GlcNAc(b1-4)GlcNAc
# Summary of the method: as §1
# [27] = target: GlcNAc(b1-3)Gal(b1-4)GlcNAc(b1-3)Gal(b1-4)GlcNAc(b1-3)Gal(b1-4)GlcNAc(b1-3)Gal(b1-4)GlcNAc(b1-2)Man(a1-3)[GlcNAc(b1-3)Gal(b1-4)GlcNAc(b1-3)Gal(b1-4)GlcNAc(b1-3)Gal(b1-4)GlcNAc(b1-3)Gal(b1-4)GlcNAc(b1-2)Man(a1-6)]Man(b1-4)GlcNAc(b1-4)[Fuc(a1-6)]GlcNAc
# Summary of the method: as §1
binder,measurement,setting,value
B1,glycan array binding signal (z-score),[1],0.062
same,glycan array binding signal (z-score),[2],-0.149
same,glycan array binding signal (z-score),[3],-0.348
same,glycan array binding signal (z-score),[4],-0.119
same,glycan array binding signal (z-score),[5],-0.292
same,glycan array binding signal (z-score),[6],-0.196
same,glycan array binding signal (z-score),[7],-0.161
same,glycan array binding signal (z-score),[8],-0.141
same,glycan array binding signal (z-score),[9],-0.123
same,glycan array binding signal (z-score),[10],-0.21
same,glycan array binding signal (z-score),[11],-0.356
same,glycan array binding signal (z-score),[12],0.217
same,glycan array binding signal (z-score),[13],-0.276
same,glycan array binding signal (z-score),GlcNAc(b1-3)Fuc,-0.107
same,glycan array binding signal (z-score),GlcNAc(b1-3)Gal,-0.207
same,glycan array binding signal (z-score),[14],-0.239
same,glycan array binding signal (z-score),GlcNAc(b1-3)Gal(b1-4)Glc,-0.22
same,glycan array binding signal (z-score),[15],-0.228
same,glycan array binding signal (z-score),[16],-0.144
same,glycan array binding signal (z-score),[17],-0.237
same,glycan array binding signal (z-score),[18],-0.046
same,glycan array binding signal (z-score),[19],-0.317
same,glycan array binding signal (z-score),[20],-0.074
same,glycan array binding signal (z-score),[21],0.039
same,glycan array binding signal (z-score),[22],-0.074
same,glycan array binding signal (z-score),[23],-0.198
same,glycan array binding signal (z-score),[24],-0.139
same,glycan array binding signal (z-score),[25],-0.13
same,glycan array binding signal (z-score),[26],-0.273
same,glycan array binding signal (z-score),[27],0.052
